From the supplement of paper PMC3334620
In all, about 33,000 sequences were measured (“E-score (-0.5 to 0.5)”: median about -0.036, highest 2% from about 0.37 on). The list shows a part of the results.

The sequences below were run against T1, Yer064c (UniProt P40041) (assay: PBM E-score (8-mer binding enrichment) (E-score (-0.5 to 0.5)); higher = stronger / more preferred TF binding; most listed sequences are background and not binding sites). Conditions: protein concentration: 200 nM; construct: GST-full length.
T1 sequence: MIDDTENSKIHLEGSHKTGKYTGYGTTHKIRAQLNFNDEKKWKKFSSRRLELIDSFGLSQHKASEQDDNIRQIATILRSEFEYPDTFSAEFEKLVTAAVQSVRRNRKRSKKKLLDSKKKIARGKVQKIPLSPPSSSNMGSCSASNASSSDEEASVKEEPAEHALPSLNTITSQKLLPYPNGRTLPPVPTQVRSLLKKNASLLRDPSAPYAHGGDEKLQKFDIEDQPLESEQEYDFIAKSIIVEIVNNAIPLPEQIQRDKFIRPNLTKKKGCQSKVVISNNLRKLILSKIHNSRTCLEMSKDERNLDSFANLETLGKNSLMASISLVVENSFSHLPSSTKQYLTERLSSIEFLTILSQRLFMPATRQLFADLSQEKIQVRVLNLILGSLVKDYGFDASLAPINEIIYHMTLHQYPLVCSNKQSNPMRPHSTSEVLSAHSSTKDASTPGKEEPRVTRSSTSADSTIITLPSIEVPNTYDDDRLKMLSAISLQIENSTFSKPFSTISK
In short: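 The E-score, a modified Wilcoxon-Mann-Whitney statistic, was computed by the Universal PBM Analysis Suite for every ungapped eight-base word pooled with its reverse complement. Scans behind it were normalised with masliner after bound GST-tagged yeast transcription factors were detected with fluorescent anti-GST. The proteins, at about 100-200 nM, had been applied to universal all-10-mer Agilent arrays made double-stranded by primer extension.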

Row | Sequence | PBM E-score
1 | ATACGACA | 0.144
2 | ATAAGAAT | 0.23
3 | AGCAACGC | 0.0114
4 | AAAGGCCA | -0.188
5 | ACCAGTAA | 0.0203
6 | ACATTACA | 0.048
7 | AAACTGTG | -0.0191
8 | GGCCTCAC | -0.251
9 | AGGCGCTC | -0.258
10 | GATGACAA | -0.0714
11 | GCGAACAC | -0.193
12 | CCTTGCAG | -0.228
13 | TAACTCAA | 0.263
14 | ATATGCGA | -0.0316
15 | ATCTGCTG | 0.0771
16 | CCAGGGGC | -0.302
17 | CTCCCCCA | -0.16
18 | CTCACCTC | 0.108
19 | CCTCGGGC | -0.0902
20 | AACGACGG | -0.176
21 | CCACATTA | -0.0329
22 | ACGGAGGA | -0.108
23 | CGCGAGTA | 0.0526
24 | CATTGTGA | 0.0944
25 | ACCAGACA | -0.192

Row | Sequence | PBM E-score
26 | CTAGTCGA | 0.214
27 | GACCATGA | 0.157
28 | CTGAACCA | 0.258
29 | TGAATCCA | 0.256
30 | CAACGAGC | -0.162
31 | GTCCAAAA | 0.0165
32 | AATCGTGC | 0.137
33 | AAAAAGTC | 0.224
34 | AACGACAT | -0.129
35 | TGCAGACA | -0.0271
36 | AAGGCTGC | -0.207
37 | CTTTCAGA | 0.0329
38 | CGACGGCG | -0.121
39 | CGCCAATA | -0.173
40 | ACTTACCT | -0.00383
41 | AATGCCTA | -0.329
42 | GAAGTAAA | 0.0818
43 | TCATGGGA | 0.138
44 | AGTGAGAC | 0.283
45 | CTAGGCGC | -0.175
46 | CGAGTCAG | 0.46
47 | CTATACCA | -0.0379
48 | AACTTGAT | 0.149
49 | GGACGTAC | -0.0832
50 | AGTAGTAT | 0.0828

Row | Sequence | PBM E-score
51 | ACAGCAGC | -0.0564
52 | CACTCCAG | 0.101
53 | CAGCTGAG | 0.0228
54 | CGTCCTAC | -0.163
55 | TCCTTACA | -0.0826
56 | AGTTACAA | 0.18
57 | ATAGTAAT | 0.291
58 | AGACCAGG | -0.166
59 | CCGTACAC | 0.00575
60 | CAAGGGGG | -0.331
61 | ATCTGGAA | -0.103
62 | AAGTGTGA | 0.137
63 | GCCACGCA | -0.212
64 | ATGACGTG | -0.239
65 | ACGAAGCC | -0.0316
66 | GACCACGA | -0.0848
67 | CACGCGTA | 0.0295
68 | AATGCTGC | -0.239
69 | CTGTACCA | -0.0997
70 | ACACTAAG | 0.131
71 | TCTATGCA | 0.0844
72 | GGAAAAAC | -0.169
73 | GTGCTAGA | -0.123
74 | GCAGTGAC | 0.232
75 | GGCATTCA | -0.228

Row | Sequence | PBM E-score
76 | GACGGCGC | -0.218
77 | AACTAGAT | -0.0283
78 | AGCGCAAA | -0.142
79 | GAACATCC | -0.125
80 | CCCATACC | -0.0853
81 | TACAGGTA | -0.0802
82 | CTGTCTCC | 0.046
83 | ACGCTCCT | -0.212
84 | AAATCACT | 0.327
85 | AGCGCATC | -0.0879
86 | TGCTGAAA | -0.0596
87 | ATGCCATG | -0.0903
88 | CATCGCGG | -0.174
89 | AGGAATAT | 0.0472
90 | CGAGACGA | -0.0652
91 | GGCGCCCC | -0.259
92 | ATTAGGCA | -0.0366
93 | AAACCGGC | -0.0714
94 | GCTTGCAC | -0.15
95 | CCTATCAC | -0.173
96 | GTGTATTA | 0.136
97 | GGGAGAAA | -0.185
98 | CCGGCTAG | -0.332
99 | GGCCACCC | -0.0842
100 | CAGGTTGC | -0.179

Row | Sequence | PBM E-score
101 | AGTGCACT | 0.0871
102 | AGGCTGCA | 0.0282
103 | ACTGAACT | -0.0143
104 | GACCTATA | 0.134
105 | GGACAGCC | -0.269
106 | GGCCGACA | -0.0946
107 | CGCAGCCC | -0.245
108 | AACCCTCA | -0.102
109 | GCGCTAGC | -0.192
110 | AGCGGCCG | -0.199
111 | CGGCTTCC | -0.29
112 | CGGCTGAA | 0.0435
113 | ATCAATCA | 0.381
114 | CACATTGG | -0.158
115 | CCTTCGGC | -0.197
116 | GCAAGACC | -0.339
117 | CCGTGTGC | -0.134
118 | ATCTGGAG | -0.114
119 | TAGGTTGA | 0.116
120 | ACTAGTGG | 0.0661
121 | AGTCTGTC | 0.191
122 | AGGTGTGA | 0.039
123 | AGAGACGG | -0.0817
124 | ATAGCAAC | 0.122
125 | AAGAGGGA | -0.188

Row | Sequence | PBM E-score
126 | TCGCCGCA | -0.142
127 | CGACGCAA | -0.207
128 | ACAGAGAG | -0.127
129 | TAATACCA | 0.0825
130 | AGCGTCGG | 0.0438
131 | AACTTCTA | 0.0503
132 | CCAGTTTA | -0.135
133 | ACGAGACC | -0.0683
134 | CGCAGGCG | -0.083
135 | CCTCGTAA | -0.12
136 | AGCGATAG | -0.1
137 | CCATGTTA | 0.0639
138 | TAGGCGAA | -0.0147
139 | AGGACCTA | 0.101
140 | AACAACGA | 0.124
141 | CAGGGCGG | -0.234
142 | AATGACAA | 0.00147
143 | GCGGTCAC | -0.079
144 | AGGTCACA | 0.1
145 | AACCGCTA | -0.169
146 | CGTCAAAC | -0.149
147 | ATCAATAA | 0.163
148 | AAGTCGAA | 0.0624
149 | CGCTGCGC | -0.135
150 | CTTTGAAA | 0.116

Row | Sequence | PBM E-score
151 | TCAGTCCA | 0.0317
152 | GCTGTCCA | -0.0439
153 | AAGCTAGT | 0.0861
154 | AACCAATT | -0.0652
155 | CCAGTTCC | -0.339
156 | TATAGCCA | 0.125
157 | CGGCAGTC | 0.221
158 | CGGCGGCA | -0.238
159 | TCCGGCCA | -0.292
160 | ATCTCGCC | -0.0358
161 | CGCATCAC | -0.126
162 | ATACGTTG | -0.205
163 | TAATTTGA | 0.119
164 | CATGTCGA | -0.00928
165 | AAAGATCT | -0.103
166 | TACTTATA | 0.116
167 | AAACCTTT | -0.0723
168 | AGCCAACG | -0.103
169 | CCTCGAGC | -0.148
170 | CAGAACAA | 0.0283
171 | GACATATC | 0.00089
172 | AGCGAACT | 0.18
